Consider 43 compounds from ChEMBL document CHEMBL4888484, “Replenishing the malaria drug discovery pipeline: Screening and hit evaluation of the MMV Hit Generation Library 1 (HGL1) against asexual blood stage Plasmodium falciparum ,using a nano luciferase reporter read-out” (2022).

SMILES strings stand for the structures. About 540 (0.36%) of roughly 150,000 compounds showed an effect of 50% or more. Some of the results follow.

In the assay the test system is Plasmodium falciparum. The experiment in a line: Primary screen in NF54 nanoGlo assay, in single point, at 2uM, 72h; a lower Z score goes with more inhibition. In kind it is functional, Erythrocyte. The conditions noted are these: timepoint 72 hour.
As for `Cc1cc(CS(=O)(=O)c2ccc(F)c(F)c2)no1`, the “% Inhibition” value was 5% and the Z score is reported as -0.92.

`CNC(=O)c1cc[nH]c1[C@H]1CCCN(Cc2cc(C(F)(F)F)ccc2Cl)C1`: the “% Inhibition” value is on record as -1% and the Z score was determined as 0.11.

`CCCCS(=O)(=O)N(C[C@H]1CCC(=O)N1)C(C)C`: the “% Inhibition” value was -8% and the Z score was determined as 1.21.

Turning to `Cn1cc(C2C[S+]([O-])CCN2C(=O)c2cc(F)c[nH]2)cn1` (stereo unspecified), the “% Inhibition” value is given as -19% and the Z score is given as 2.25.

As to `COc1nc(N[C@H]2COC[C@@H]2N2CCCC2)ncc1F`, the “% Inhibition” value is given as -7% and the Z score came to 1.4.

`Cn1nncc1C(=O)N1CCCC(C)(C)c2ccccc21`: the “% Inhibition” value is listed as -10% and the Z score worked out at 1.57.

`O=C(NCc1nccs1)N1CCC[C@H](CN2CCOCC2)C1`: the “% Inhibition” value is on record as -9% and the Z score is recorded as 0.85.

On to `CCN(CCC(=O)NCC1CC1)C(=O)c1cc2n(n1)CCCN(Cc1ccc(F)cc1)C2=O`, for which the “% Inhibition” value is -9% and the Z score was 0.87.

For `COc1ccc(N2CCN(c3nc(C(=O)NCCN(C)C)cs3)CC2)cc1`, the “% Inhibition” value was -6% and the Z score amounted to 0.8.

Turning to `Cc1ccc(C)c(NC(=O)c2c(Oc3ccc(F)cc3)nc(C)c(Cl)c2C)c1`, the “% Inhibition” value is listed as -8% and the Z score is on record as 1.01.

`C[C@@H]1CN(Cc2cc3cc(F)ccc3n2C)CC[C@]1(C)O`: the “% Inhibition” value was -15% and the Z score is 1.5.

Consider `COc1cccc(CNc2nc3ccncc3n(C(C)C)c2=O)c1OC`, for which the “% Inhibition” value was -15% and the Z score came out at 1.47.

With `O=C1NCCOCCCN(S(=O)(=O)c2ccc3c(c2)CCC3)[C@H]2CCC[C@@H]12`, the “% Inhibition” value was determined as 2% and the Z score is recorded as -0.29.

As for `O=C(NC[C@H]1CCCO1)c1ccc(S(=O)(=O)N2CCOCC2)cc1`, the “% Inhibition” value amounted to 8% and the Z score is on record as -0.99.

For the compound `Cc1cccc(N(C)CCN2CCOCC2)c1`, the “% Inhibition” value is -17% and the Z score worked out at 1.53.

Regarding `CCOc1ccc(S(=O)(=O)N2CCCCC2)cc1-c1nc(C(C)C)no1`, the “% Inhibition” value is -6% and the Z score was 1.17.

As for `CCOc1cc(C(=O)Nc2nc(C3CC3)cs2)ccn1`, the “% Inhibition” value is -13% and the Z score worked out at 1.81.

Turning to `CC(C)CC(=O)C(=O)N1CCC([C@]2(Cc3ccc(F)cc3)NC(=O)N(CC3CC3)C2=O)CC1`, the “% Inhibition” value was -4% and the Z score is 0.42.

`CCc1ccc(S(=O)(=O)N2CC[C@H](n3cc(-c4ccccc4)nn3)C2)s1`: the “% Inhibition” value was -26% and the Z score is reported as 3.39.

In the case of `Cc1ncn(CCNCc2c(F)cccc2F)c1C`, the “% Inhibition” value is on record as -4% and the Z score worked out at 0.44.

For the compound `Cn1cnnc1CCC(=O)N[C@H](c1nccn1C)C1CC1`, the “% Inhibition” value is -9% and the Z score is given as 1.58.

For the compound `CCN=C(NC)Nc1cccc(OCCCOC)c1`, the “% Inhibition” value is -4% and the Z score stood at 0.42.

As for `COc1cccc(OCCN2CC3(CCCC3)CC2=O)c1`, the “% Inhibition” value is given as -7% and the Z score was found to be 1.24.

As to `COc1cc(NCc2cn[nH]c2-c2cccs2)ncn1`, the “% Inhibition” value is on record as -6% and the Z score is given as 0.79.

For `CCN(CC)C(=O)N1CCN(c2ncccc2-c2nc(C)no2)CC1`, the “% Inhibition” value is recorded as -15% and the Z score is 2.8.

In the case of `Cc1nn(-c2ccccc2)c2nc(Cc3ccccc3)nc(N3CCN(C(=O)C[C@@H](C)CC(C)(C)C)CC3)c12`, the “% Inhibition” value was -5% and the Z score is 0.71.

For `O=C(N[C@H]1CCCN(C(=O)COC(F)F)C1)c1ccc(Cl)cc1`, the “% Inhibition” value stood at 2% and the Z score is listed as -0.19.

Consider `CCOC(=O)c1cn(Cc2ccccc2Cl)c2nc(C)ccc2c1=O`, for which the “% Inhibition” value is 0% and the Z score is recorded as -0.08.

`COc1ccc(Cc2ncc3c(n2)CN(CCn2nc(C)cc2C)C3)cc1`: the “% Inhibition” value is reported as -4% and the Z score worked out at 0.57.

As for `Cc1cc(-c2nc(-c3ccc(OC(C)(C)C)cn3)no2)n[nH]1`, the “% Inhibition” value is 1% and the Z score is recorded as -0.26.

Turning to `O=S1(=O)CCc2ccccc2N1Cc1nnc2n1CCCCC2`, the “% Inhibition” value is on record as -9% and the Z score was 1.33.

Turning to `c1ccc2c(N3CCOCC3)nnc(N3CCOCC3)c2c1`, the “% Inhibition” value is listed as -9% and the Z score amounted to 1.33.

In the case of `Cc1ccc(C(=O)NNC2=NCCC2)cc1`, the “% Inhibition” value is -10% and the Z score is listed as 1.59.

Consider `CCn1nc(C2CCCC2)nc1-c1ccncc1`, for which the “% Inhibition” value stood at 4% and the Z score is -0.65.

`COc1ccccc1CNC(=O)[C@@]1(CCO)CC12CCOCC2`: the “% Inhibition” value is recorded as -1% and the Z score is 0.1.

For the compound `CC1CN(C(=O)CC2OCCCO2)CC(c2ccc(F)cc2)O1` (stereo unspecified), the “% Inhibition” value was -9% and the Z score is listed as 1.44.

On to `C[C@@H](C(=O)NCCN1CCOC(C)(C)C1)n1cnc2c(N)ncnc21`, for which the “% Inhibition” value is recorded as -6% and the Z score was found to be 1.2.

With `CCO[C@@H](C)c1nccn1Cc1nc(=O)[nH][nH]1`, the “% Inhibition” value is -6% and the Z score is on record as 0.72.

`CCCC(=O)N1CCC[C@H](C(=O)N2CCCC2)C1`: the “% Inhibition” value is -11% and the Z score came out at 1.43.

As for `CCOC[C@@H](O)CNC(=O)c1cccc(C)c1Cl`, the “% Inhibition” value was -9% and the Z score is 1.57.

On to `COc1ccc(-n2nc(C(C)C)c(CN(C[C@H](O)c3ccccc3)C(C)C)c2Oc2ccccc2)cc1`, for which the “% Inhibition” value is 0% and the Z score is recorded as -0.04.

Turning to `COc1ccc(N2C[C@@H](C(=O)N3CCCn4ncnc43)CC2=O)cc1`, the “% Inhibition” value came to 1% and the Z score is recorded as -0.27.

As to `CC1CCCN(C(C)CNC(=O)Nc2cccc(-c3ncn(C)n3)c2)C1` (stereo unspecified), the “% Inhibition” value is listed as -3% and the Z score worked out at 0.65.
